# Test results: PubChem BioAssay AID1645882 (National Center for Advancing Translational Sciences (NCATS), 2021)
# Hit rate of the full screen: of about 16,000 compounds, about 120 (0.75%) were called active. Roughly 4% stayed inconclusive and do not appear here. Calls follow the shape of the dose curve; as a rule, active = well fitted inhibition curve with a large enough effect; inconclusive = small, poorly fitted or top-dose-only effect; inactive = no such curve, though single readings can be large or run the other way. Some of the results follow.
# Target: Rap guanine nucleotide exchange factor 3 (Homo sapiens) (UniProt O95398)
# Chain of UniProt O95398 (O95398 whole entry, looked up): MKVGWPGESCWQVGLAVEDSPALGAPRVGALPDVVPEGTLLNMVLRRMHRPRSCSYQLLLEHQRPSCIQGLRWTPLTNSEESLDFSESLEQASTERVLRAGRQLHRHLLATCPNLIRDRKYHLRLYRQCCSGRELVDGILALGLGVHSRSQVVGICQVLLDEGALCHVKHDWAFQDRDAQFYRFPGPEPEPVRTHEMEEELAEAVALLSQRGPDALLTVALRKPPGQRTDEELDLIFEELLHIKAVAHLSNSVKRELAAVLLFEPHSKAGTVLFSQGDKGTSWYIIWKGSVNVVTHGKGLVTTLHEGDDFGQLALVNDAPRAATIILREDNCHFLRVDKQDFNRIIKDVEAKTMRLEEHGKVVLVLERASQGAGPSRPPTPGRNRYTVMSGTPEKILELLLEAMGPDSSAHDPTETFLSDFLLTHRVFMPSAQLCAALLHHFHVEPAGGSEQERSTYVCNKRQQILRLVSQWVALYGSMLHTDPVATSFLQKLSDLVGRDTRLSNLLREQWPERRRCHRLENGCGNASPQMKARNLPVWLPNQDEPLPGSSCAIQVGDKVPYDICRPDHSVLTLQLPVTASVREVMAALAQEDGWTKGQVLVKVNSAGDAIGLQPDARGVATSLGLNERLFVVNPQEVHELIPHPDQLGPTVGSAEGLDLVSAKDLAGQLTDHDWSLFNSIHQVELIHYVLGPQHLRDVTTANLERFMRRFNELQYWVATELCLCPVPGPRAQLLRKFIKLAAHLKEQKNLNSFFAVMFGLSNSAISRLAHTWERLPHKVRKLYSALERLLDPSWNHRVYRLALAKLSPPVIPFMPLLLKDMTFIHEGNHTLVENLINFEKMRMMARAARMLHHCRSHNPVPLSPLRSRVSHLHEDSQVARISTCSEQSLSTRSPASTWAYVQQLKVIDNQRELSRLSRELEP
# Assay: Validation qHTS for antagonist of cAMP-regulated guanine nucleotide exchange factor 3 (EPAC1); also: nearly all actives have a fitted effect of over 75% in size
# Settings: EPAC1 Rap1B-BODIPY-GDP exchange, fluorescence; series mostly up to 150 µM; activity change, negative = inhibition: at the top concentration
# How it was run: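 EPAC1 (100 nM) mixed with 250 nM RAP1B-BODIPY-GDP and 50 uM GDP; compounds in concentration series, 5 min at room temperature. Fluorescence (ex 480/em 540 nm) read every 5 min for 30 min; normalized to ATA control and DMSO.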
row,SMILES,"activity change, negative = inhibition"
1,CC(=O)OC1C(=O)[C@]2(C)C(O)CC3OC[C@]3(OC(C)=O)C2[C@@H](OC(=O)c2ccccc2)[C@]2(O)CC(O)C(C)=C1C2(C)C (some centres not stated),inactive: 13.3%
2,CC1C(=O)OC2O[C@]3(C)CC[C@H]4C(C)CCC1[C@]24OO3 (some centres not stated),inactive: 8.62%
3,O=C(OCCN1CCCCC1)C(O)(c1ccccc1)c1ccccc1,inactive: 12.9%
4,C[C@]12CCC3C(C=CC4=CC(=O)CC[C@]43C)C1CC[C@]2(O)CCC(=O)O (some centres not stated),inactive: 6.34%
5,COc1ccc2[nH]cc(CCN)c2c1,inactive
6,N#Cc1cccc(NC(=O)N2CCCC3(CCN(C(=O)Oc4ccccc4)CC3)C2)c1,inactive: 3.85%
7,[O]=[Cr](=[O])([OH])[O][Cr](=[O])(=[O])[OH],inactive
8,c1ccc(CN2CCC3(CCNCC3)CC2)cc1,inactive: 18.7%
9,CC(C)(C)NCC(O)c1cc(Cl)c(N)c(C(F)(F)F)c1 (configuration not stated),inactive: 4.49%
10,Cc1ncc(CNC(=O)N(CCCl)N=O)c(N)n1,inactive
11,COc1cc(C[C@@H](C)N)c(OC)cc1C,inactive: 35.5% [at 320 µM]
12,CC(N)[C@H](O)c1ccc(O)c(O)c1 (some centres not stated),inactive: 7.57% [at 75.8 µM]
13,CC1(C)C(=O)C=C[C@@]2(C)C1=C(O)C(=O)[C@@]1(C)C2CC[C@@]2(C)C(c3ccoc3)C[C@H]3O[C@@]321 (some centres not stated),inactive: 8.18%
14,CCC1C(C)=NN=C(c2ccc(OC)c(OC)c2)c2cc(OC)c(OC)cc21 (configuration not stated),inactive: 9.92%
15,CC(C)=CC1C(C(=O)OCN2C(=O)C3=C(CCCC3)C2=O)C1(C)C (configuration not stated),inactive: 0.319%
16,CN1CCCCC1c1ccc(-c2cccnc2)nc1 (configuration not stated),inactive
17,C[C@]12CCC(=O)C[C@@H]1CC[C@@H]1[C@@H]2CC[C@]2(C)[C@@H](O)CC[C@@H]12,inactive: 5.15%
18,Clc1cccc(N2CCNCC2)c1,inactive
19,COc1ccc2[nH]cc(CCNCc3ccc(Br)cc3)c2c1,inactive: 5.03%
20,CCCN(CCC)C(=O)Cc1c(-c2ccc(Cl)cc2)nc2ccc(Cl)cn12,inactive: 13.6%
21,Clc1ccc(CSC(Cn2ccnc2)c2ccc(Cl)cc2Cl)cc1 (configuration not stated),inactive: -6.63% [at 75.8 µM]
22,CN1c2ccccc2C(NCCCCCCC(=O)O)c2ccc(Cl)cc2S1(=O)=O (configuration not stated),inactive: 17.3%
23,O=C(CN1CCCCC1c1cccnc1)c1ccccc1 (configuration not stated),inactive: 7.76%
24,CCCCCCC(=O)O[C@H]1CC[C@H]2[C@@H]3CC[C@H]4CC(=O)C=C(C)[C@]4(C)[C@H]3CC[C@]12C,inactive: 2.5%
25,Oc1c(Br)cc(Br)cc1Br,inactive: 14.2%
26,COc1cc(C[C@H](C)N)c(OC)cc1Br,inactive: 16.5% [at 320 µM]

row,SMILES,"activity change, negative = inhibition"
1,NCCc1cc(O)c(O)cc1O,inactive: -25.8%
2,C#CCOS(=O)OC1CCCCC1Oc1ccc(C(C)(C)C)cc1 (configuration not stated),inactive: 11.2%
3,CC(C)C1C(=O)N2CCCC2[C@]2(O)O[C@@](NC(=O)[C@@H]3C=C4c5cccc6[nH]cc(c56)C[C@H]4N(C)C3)(C(C)C)C(=O)N12 (some centres not stated),inactive: 2.76%
4,CCC(=O)O[C@@](Cc1ccccc1)(c1ccccc1)[C@@H](C)CN(C)C,inactive: 7.21% [at 75.8 µM]
5,CN1CC[C@@]23CCCCC2C1Cc1ccc(O)cc13 (some centres not stated),inactive: 0.89%
6,NNc1ccccc1,inactive: 32%
7,C[C@]12Cc3cn4c(nc3C=C1CCC1C2CC[C@@]2(C)[C@H]1CC[C@@]2(O)C#N)nc1ccccc14 (some centres not stated),inactive: 14.2% [at 75.8 µM]
8,CN(C)CCc1c[nH]c2ccc(O)cc12,inactive: 34.5% [at 320 µM]
9,COC([CH2][Hg])CNC(=O)c1ccccc1OCC(=O)O (configuration not stated),inactive: 22.7%
10,COC(=O)N1CCC2(CCCN(C)C2)CC1,inactive: 4.25%
11,C[C@@]12CCC(=O)C[C@@H]1CC[C@@H]1[C@@H]2CC[C@]2(C)C(=O)CC[C@@H]12,inactive: 3.48%
12,CN1CC[C@@]2(CCCN(C(=O)c3ccncc3)C2)C1,inactive: 11%
13,CC1(C)OC1COc1c2occc2cc2ccc(=O)oc12 (configuration not stated),inactive: 13.7%
14,CCCC[N+]1(C)[C@@H]2CC(OC(=O)[C@H](CO)c3ccccc3)C[C@H]1[C@@H]1O[C@@H]12 (some centres not stated),inactive: 9.1%
15,C=CCN(C1=NCCN1)c1c(Cl)cccc1Cl,inactive
16,CC[C@@]1(O)C(=O)OCc2c1cc1n(c2=O)Cc2cc3ccccc3nc2-1,inactive
17,CN(C)[C@@H]1C(=O)C(C(N)=O)=C(O)[C@@]2(O)C(=O)C3=C(O)c4c(O)ccc(Cl)c4[C@@](C)(O)[C@H]3C[C@@H]12,inactive: 22% [at 75.8 µM]
18,O=C(c1ccco1)N1CCC[C@@]2(CCN(Cc3ccncc3)C2)C1,inactive: 7.5%
19,CN1CCN(C(=O)O[C@@H]2c3nccnc3C(=O)N2c2ccc(Cl)cn2)CC1,inactive: 12%
20,CC[N+](CC)(CCCNC1=CC(=O)C(NCCC[N+](CC)(CC)Cc2ccccc2)=CC1=O)Cc1ccccc1,inactive
21,O=C1C[C@@H]2OCC=C3CN4CC[C@]56c7ccccc7N1[C@H]5[C@H]2[C@H]3C[C@H]46,inactive: 21.1%
22,O=C/C=C/c1ccccc1,inactive: 20.4%
23,CC(=O)OC1CN2CCC1CC2 (configuration not stated),inactive: 0.989%
24,CC(C)CN1CCCC2(CCN(C(=O)Oc3ccccc3)CC2)C1,inactive: 8.06%
25,CC1CC[C@@]2(OC1)OC1C(O)C3C4CC[C@H]5CC(O[C@@H]6O[C@@H](CO)[C@H](OC7OC(CO)C(O)C(OC8OCC(O)C(O)[C@H]8O)[C@@H]7O[C@@H]7OC(CO)[C@H](O)[C@@H](O[C@@H]8OC(CO)C(O)C(O)C8O)C7O)C(O)C6O)C(O)C[C@]5(C)C4CC[C@]3(C)C1C2C (some centres not stated),inactive: -0.236%
26,CCCOC(=O)Cc1ccc(OCC(=O)N(CC)CC)c(OC)c1,inactive: 26.8%
